{"source": "PubChem BioAssay (NCI)", "test_in_all_cases": "NCI tumour cell line growth inhibition, 48 h", "key": {"OVCAR-4 ovarian": {"tested_on": "OVCAR-4 ovarian"}, "MDA-MB-435": {"tested_on": "MDA-MB-435"}, "SN12C renal": {"tested_on": "SN12C renal"}, "M14 melanoma": {"tested_on": "M14 melanoma"}, "TK-10 renal": {"tested_on": "TK-10 renal"}, "CAKI-1 renal": {"tested_on": "CAKI-1 renal"}, "EKVX NSCLC": {"tested_on": "EKVX NSCLC"}, "IGROV1 ovarian": {"tested_on": "IGROV1 ovarian"}, "HS 578T breast": {"tested_on": "HS 578T breast"}, "CCRF-CEM leukemia": {"tested_on": "CCRF-CEM leukemia"}, "SNB-75 CNS": {"tested_on": "SNB-75 CNS"}, "HCT-116 colon": {"tested_on": "HCT-116 colon"}, "A498 renal": {"tested_on": "A498 renal"}, "HT29 colon": {"tested_on": "HT29 colon"}, "HL-60(TB) leukemia": {"tested_on": "HL-60(TB) leukemia"}, "PC-3 prostate": {"tested_on": "PC-3 prostate"}}, "note": "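Cultured in 96-well plates, cells were exposed to test compound for 48 hours across five concentrations. GI50: concentration for 50% inhibition of growth.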 For part of its entries the source gives two or more results. They are shown here; other results are not. The source may hold further records. For part of these data: The values listed for one entry are repeated measurements (runs, samples, wells, individuals or studies). Records carry a tag for their origin. A, B and so on number the origins entry by entry.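 TGI marks complete inhibition of growth.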 For part of these data: The tests behind the records often covered other concentration ranges, not given here; a value can be the end of its range."}
{"smiles": "OCC1OC(NCCNCCNC2OC(CO)C(O)C(O)C2O)C(O)C(O)C1O", "note": "(stereo not drawn)", "values": [{"measurement": "GI50", "setting": "OVCAR-4 ovarian", "result": "1.63 µM [sample A, 1 test] and > 100 µM [sample B, 1 test] and > 100 µM [sample C, 1 test]"}, {"measurement": "TGI", "setting": "OVCAR-4 ovarian", "result": "3.54 µM [sample A, 1 test] and > 100 µM [sample B, 1 test] and > 100 µM [sample C, 1 test]"}, {"measurement": "GI50", "setting": "MDA-MB-435", "result": "1.72 µM [sample A, 1 test] and > 100 µM [sample B, 1 test]"}, {"measurement": "TGI", "setting": "MDA-MB-435", "result": "3.23 µM [sample A, 1 test] and > 100 µM [sample B, 1 test]"}]}
{"smiles": "CCCCCCCCCCC(O)[C@H]1CCC(C2CC[C@H]([C@H](O)CCCCCCCCCCC(O)CC3=CC(C)OC3=O)O2)O1", "note": "(stereo partly drawn)", "values": [{"measurement": "TGI", "setting": "SN12C renal", "result": "5.84 µM and > 100 µM"}, {"measurement": "TGI", "setting": "M14 melanoma", "result": "3.21 µM and 44.4 µM"}, {"measurement": "TGI", "setting": "TK-10 renal", "result": "3.94 µM and 54.2 µM"}, {"measurement": "TGI", "setting": "CAKI-1 renal", "result": "5.42 µM and 86.7 µM"}, {"measurement": "TGI", "setting": "EKVX NSCLC", "result": "6.41 µM and > 100 µM"}, {"measurement": "TGI", "setting": "IGROV1 ovarian", "result": "3.68 µM and > 100 µM"}]}
{"smiles": "O=C1/C(=C/c2ccccc2F)CNC/C1=C\\c1ccccc1F", "values": [{"measurement": "TGI", "setting": "HS 578T breast", "result": "3.09 µM [sample A, mean of 3 tests] and > 36.2 µM [sample B, mean of 2 tests]"}]}
{"smiles": "Cc1nn(-c2ccccc2)c2c1CC(=O)Nc1ccccc1-2", "values": [{"measurement": "TGI", "setting": "CCRF-CEM leukemia", "result": "9.65 µM and 702 nM"}, {"measurement": "TGI", "setting": "SNB-75 CNS", "result": "6.8 µM and 99.4 µM"}, {"measurement": "TGI", "setting": "HCT-116 colon", "result": "5.09 µM and > 100 µM"}, {"measurement": "TGI", "setting": "A498 renal", "result": "3.03 µM and 229 nM"}, {"measurement": "TGI", "setting": "HT29 colon", "result": "4.54 µM and > 100 µM"}, {"measurement": "TGI", "setting": "HL-60(TB) leukemia", "result": "2.26 µM and 57 nM"}, {"measurement": "TGI", "setting": "PC-3 prostate", "result": "3.11 µM and > 100 µM"}]}
